From PubChem BioAssay AID485281 (National Center for Advancing Translational Sciences (NCATS), 2010)
In all, about 350,000 compounds went through this assay and about 260 (0.074%) were called active. Inconclusive results, whose numbers are uncertain, are shown with a selection of clear calls. Calls follow the shape of the dose curve; as a rule, active = well fitted inhibition curve with a large enough effect; inconclusive = small, poorly fitted or top-dose-only effect; inactive = no such curve, though single readings can be large or run the other way. A potency beside an inconclusive call is a rough fit, not a confirmed value.

Target: Ferritin light chain (Equus caballus) (UniProt P02791)
UniProt P02791, sequence (P02791 whole entry, looked up): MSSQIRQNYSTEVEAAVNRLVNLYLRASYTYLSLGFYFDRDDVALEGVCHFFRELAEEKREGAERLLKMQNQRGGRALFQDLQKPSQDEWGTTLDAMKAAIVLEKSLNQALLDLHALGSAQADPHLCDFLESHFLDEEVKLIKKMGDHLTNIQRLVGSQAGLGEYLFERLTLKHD
Assay: qHTS Assay for Identification of Novel General Anesthetics; also: nearly all actives have a fitted effect of over 20% in size
Details: apoferritin/1-aminoanthracene competitive binding, fluorescence; series mostly up to 77.5 µM
Summary of the method: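 Read-out: endpoint 1-AMA fluorescence, excitation 380 nm and emission 535 nm, after compounds sit 10 min at room temperature with 10 uM horse-spleen apoferritin in 50% saturated 1-AMA/PBS. Values come from four-parameter Hill fits.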
Potency is read from the fitted curve at half-maximal effect; tags tell the direction and shape of the fitted curve.

Potency, inconclusive:
Cc1ccc(Nc2nc(N)nc(CN3CCN(C(=O)c4ccco4)CC3)n2)cc1Cl 31.6 µM [inhibitor, partial curve]
COc1ccc(N=NC2=C(O)CC(C)(C)CC2=O)cc1 31.6 µM [inhibitor, single point]
Cc1ccc(OCc2nc(-c3cccs3)no2)c([N+](=O)[O-])c1 28.2 µM [inhibitor, partial curve]
O=C(CCl)NC(=O)NC12CC3CC(CC(C3)C1)C2 39.8 µM [inhibitor, partial curve]
CCN(CC)c1ccc(/C=N/Nc2nc(C)cc(C)n2)c(O)c1 39.8 µM [inhibitor, partial curve]
O=C(Nc1cnn(Cc2ccc(F)cc2)c1)c1noc2c1CCCC2 31.6 µM [inhibitor, partial curve]
Cc1ccc2nc(NC(=O)CNS(=O)(=O)c3ccc(Br)s3)sc2c1 15.8 µM [inhibitor, partial curve]
O=[N+]([O-])c1ccccc1-c1ccc(C(=S)N2CCCCC2)o1 25.1 µM [inhibitor, partial curve]
CCCC(=O)Nc1c2c(nn1-c1ccc(C)cc1C)CSC2 14.1 µM [inhibitor, partial curve]
Cc1ccccc1OCCCCn1cnc2ccccc21 44.7 µM [inhibitor, single point]
CN(C1=C(N2CCCCC2)C(=O)c2ccccc2C1=O)c1ccccc1 31.6 µM [inhibitor, partial curve]
Cc1cc(CNC(=O)CCc2nnc(CCCCc3ccccc3)o2)nn1C 28.2 µM [inhibitor, partial curve]
CC(C)(C)c1ccc(/C=N/NC(=O)c2ccccn2)cc1 31.6 µM [inhibitor, partial curve]
CN(C)CCN1C(=O)C(O)=C(C(=O)c2cc3ccccc3o2)C1c1cccc(Br)c1 (configuration not stated) 35.5 µM [inhibitor, partial curve, poor fit]
O=C(c1ccc(Oc2ccc([N+](=O)[O-])cc2)cc1)N1CCCCCC1 28.2 µM [inhibitor, partial curve]
O=[N+]([O-])c1ccccc1-c1cc(-c2cc(Cl)ccc2O)n[nH]1 39.8 µM [inhibitor, partial curve]
CCOC(=O)C1CCN(C(=O)CCCOc2ccccc2)CC1 39.8 µM [inhibitor, single point]
CC(C)(C)c1nc(NC(=O)Nc2ccccc2)sc1Br 12.6 µM [inhibitor, partial curve]
CN(c1ccccc1)S(=O)(=O)c1ccc(C(=O)Nc2nccs2)cc1 0.316 µM [inhibitor, full curve, poor fit]
CCc1ccccc1NC(=O)Cn1c(=O)n(Cc2ccccc2)c(=O)c2c(C)c(C(=O)N(C)C)sc21 5.62 µM [inhibitor, full curve]
Cn1nccc1C(=O)Nc1sc2c(c1C#N)CCCC2 22.4 µM [inhibitor, partial curve]
CCOC(=O)c1c(NC(=O)C2CC(Cl)=CCC2C(=O)O)sc2c1CCCCC2 (configuration not stated) 44.7 µM [inhibitor, single point]
COc1cc(CNCCSc2nnnn2C)ccc1OCc1ccccc1C 7.08 µM [inhibitor, partial curve]
Cc1ccc(NC(=O)N(CCCN2CCOCC2)Cc2cccs2)cc1C 28.2 µM [inhibitor, partial curve]
Cc1cc(NC(=S)Nc2cccnc2)ccc1Br 25.1 µM [inhibitor, single point]
COc1ccc(N=Cc2ccc(CNS(=O)(=O)c3ccc(Cl)cc3)o2)cc1 22.4 µM [inhibitor, partial curve]
CC(C)C1Cc2c(C#N)c(N)n(C)c(=S)c2CO1 (configuration not stated) 50.1 µM [inhibitor, single point]
S=C1NC2(CCCCC2)Cc2ccccc21 50.1 µM [inhibitor, single point]
CC(=O)NC(NC(=S)Nc1ccc(N=Nc2ccccc2)cc1)C(Cl)(Cl)Cl (configuration not stated) 14.1 µM [inhibitor, partial curve]

Potency, inactive:
Cc1ccc(-n2c3nc(=O)n(C)c(=O)c-3cc3ccccc32)cc1
Cc1cccc(Nc2nc(NCCCN3CCOCC3)nc(N)c2[N+](=O)[O-])c1
O=C(CCN1CCN(c2ccccc2F)CC1)Nc1ccccc1Cl
COc1cccc2cc(CC(=O)c3ccc(C)cc3C)c(=O)oc12
Cc1cccc(C)c1NC(=S)NC(C)CCc1ccccc1 (configuration not stated)
CN(C)C(=O)Cn1c(SCC(=O)Nc2ccc3c(c2)OCO3)nc2ccccc21
Cc1ccc(C)n1-c1sccc1C(=O)O
CCOc1ccccc1C(=O)NCc1ccc2c(c1)CCN2C(C)=O
CC1CCN(CCCNC(=O)c2cc3c(s2)-c2ccccc2OC3)CC1
Cc1ccc(NC(=O)C(=O)NCc2ccc(Cl)cc2)cc1
CCN=C1S/C(=C\c2cn(CC)c3ccccc23)C(=O)N1CC
O=C(Nc1nc(-c2ccc(S(=O)(=O)N3CCOCC3)cc2)cs1)c1ccccc1
Cc1ccc2c(c1)c(=O)c(C(=O)c1ccncc1)cn2CC(=O)Nc1c(C)cccc1C
CC(C)(C)NC(=O)CSc1nc(-c2ccc(F)cc2)cs1
Cc1cccc(NC(=O)Cn2c(=O)oc3cc(S(=O)(=O)NCc4ccccc4)ccc32)c1
COc1ccc(Br)cc1C1CC(=O)Nc2c1c(C)nn2-c1nc(C)cc(C)n1 (configuration not stated)
Cc1ccc(-c2n[nH]c3c2C(c2ccccc2Cl)N(c2ccc(C(=O)O)cc2)C3=O)cc1 (configuration not stated)
Cc1ccc(NC(=O)c2ccc(OC(=O)C(C)Oc3ccc(Cl)cc3C)cc2)cc1 (configuration not stated)
